Measurements reported in PubChem BioAssay AID1345083 (National Center for Advancing Translational Sciences (NCATS), 2018).
Out of some 94,000 compounds screened, about 6,200 (6.6%) were called active. This list was built around the results that the source calls inconclusive (neither active nor inactive); the mix of calls is not that of the screen. Calls follow the shape of the dose curve; as a rule, active = well fitted inhibition curve with a large enough effect; inconclusive = small, poorly fitted or top-dose-only effect; inactive = flat fitted curve, though single readings scatter. A potency beside an inconclusive call is a rough fit, not a confirmed value.

Assay: Cytotoxic Profiling in HEK 293 Cell Line of Diverse Libraries Using Quantitative High-Throughput Screening; also: nearly all actives have a fitted effect of over 60% in size
Details: HEK 293 viability, ATP luminescence (CellTiter-Glo), 48-72 h; series mostly up to 115 µM
In short: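 Cells seeded first (HEK 293, 250 cells/well), then compound added by pintool. Incubation ran 48 or 72 hr at 37 degree Celsius. CellTiter-Glo was added and luminescence imaged after 10 min at room temperature.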
Potency is read from the fitted curve at half-maximal effect; tags tell the direction and shape of the fitted curve.

| Compound | Potency |
| --- | --- |
| COc1ccc(CCC(=O)N2CCC(Cc3nc(-c4cnccn4)no3)CC2)cc1 | inactive |
| COc1cccc(CC(=O)Nc2ccc3c(N4CCCCC4)ncnc3c2)c1 | active: 31.6 µM |
| O=C(NCC(=O)N1CCN(Cc2ccccc2)CC1)c1cccc(-c2ccc(C(F)(F)F)cc2)c1 | inconclusive: 11.2 µM [inhibitor, full curve, poor fit] |
| COc1ccc(C(=O)N2CCCC(N3C(=O)c4c(c(C)nn4-c4ccccc4)C3C)C2)cc1 (stereo unspecified) | inconclusive: 50.1 µM [inhibitor, partial curve, poor fit] |
| CCOc1ccc(C(=O)NC2CCCN(c3cc(-c4ccc(F)cc4)[nH]n3)C2)cc1 (stereo unspecified) | inconclusive: 79.4 µM [inhibitor, partial curve] |
| COc1cccc(N2CCN(C(=O)[C@H]3CCC[C@H]3NC(=O)c3ccc(OC)nc3)CC2)c1 | inconclusive: 89.1 µM [inhibitor, single point] |
| CC(C)CCN1CCC(O)(c2csc(CN3CCN(c4ccccn4)CC3)n2)CC1 | inconclusive: 70.8 µM [inhibitor, partial curve] |
| O=C(COc1ccccc1)N1CCC[C@H]1c1nc(-c2ccc(F)cc2)n[nH]1 | inconclusive: 35.5 µM [inhibitor, partial curve] |
| COc1ccc(CCNC(=O)c2ccc(Cn3ccn4nc5c(c4c3=O)CCCC5)cc2)cc1OC | active: 39.8 µM |
| NCc1ccc(-c2cccs2)cc1 | inconclusive: 112 µM [inhibitor, single point] |
| COc1ccc2c(c1)c(CN1CCOCCNC(=O)CC1)cn2C | inconclusive: 50.1 µM [inhibitor, partial curve, poor fit] |
| CC(C)(C)n1nnnc1C1CC2(CCOCC2)C(=O)N1Cc1ccccc1F (stereo unspecified) | inactive |
| CCc1ncc2c(=O)n(Cc3ccc(OC)cc3)ccn12 | inconclusive: 35.5 µM [inhibitor, partial curve] |
| CCCNC1(Cc2cc(-c3ccc(F)cc3)on2)COC1 | inconclusive: 158 µM [inhibitor, single point] |
| COC(=O)C1=C(C)N=C2SC=C(CC(=O)NC3CC4CCC3C4)N2C1c1ccsc1 (stereo unspecified) | inconclusive: 44.7 µM [inhibitor, partial curve, poor fit] |
| O=S(=O)(c1ccccc1)N1CCCC(CN2CCCC2)CC1 (stereo unspecified) | inconclusive: 50.1 µM [inhibitor, partial curve, poor fit] |
| CCOC(=O)CCNC(=O)N1CCOc2ccc(CN3CCc4ccccc4C3)cc2C1 | inactive |
| CCc1nc2cc(N3CCC(C(=O)NCc4cccc(F)c4)CC3)cnc2nc1CC | inconclusive: 89.1 µM [inhibitor, single point] |
| O=C(c1ccco1)N1CCCn2cc(-c3ccc4c(c3)OCO4)nc21 | inconclusive: 50.1 µM [inhibitor, partial curve, poor fit] |
| Cc1nc2c(c(-c3ccc(O)cc3)n1)CN(Cc1ccc(F)cc1)CC2 | inconclusive: 79.4 µM [inhibitor, partial curve] |
| CN1C(=O)c2cccn2CC1C(=O)N1CCCCC1 (stereo unspecified) | inactive |

| Compound | Potency |
| --- | --- |
| CC[C@H]1CN(C(=O)Nc2cccc(C(F)(F)F)c2)CC[C@H]1CC(=O)N(C)CCC#N | inconclusive: 100 µM [inhibitor, partial curve, poor fit] |
| COc1cccc(-c2cccc(CN3CCCC3C(=O)NC(C)C)c2)c1 (stereo unspecified) | inconclusive: 44.7 µM [inhibitor, partial curve, poor fit] |
| O=C(Nc1cc(-c2ccccn2)nn1-c1ccccc1)c1ccc(F)cc1 | inactive |
| Cc1ccc(S(=O)(=O)N2CCC(CCC(=O)NCc3cccc(C)c3)CC2)cc1 | inconclusive: 50.1 µM [inhibitor, partial curve, poor fit] |
| CC(=O)N1CCN(c2ccnc(-c3nnc(C)n3C3CCCCC3)c2)CC1 | inactive |
| COCCNC(=O)[C@@H]1CCCN1C(=O)c1cccc(-c2ccccc2OC)c1 | inactive |
| O=C(NCCCc1ccccc1)C1CCCN(c2nccc(Nc3ccccc3F)n2)C1 (stereo unspecified) | inconclusive: 39.8 µM [inhibitor, partial curve, poor fit] |
| C[C@H](C(=O)N1Cc2ccccc2CC2(CCN(C)C2)C1)c1ccccc1 (stereo partly specified) | inconclusive: 79.4 µM [inhibitor, partial curve] |
| COc1ccc(-c2cnc3[nH]cc(CC(=O)Nc4cccc(F)c4)c3c2)cc1 | inconclusive: 63.1 µM [inhibitor, full curve] |
| CC(C)CN1C(=O)CO[C@H](c2ccc(NC(=O)COc3ccccc3)cc2)[C@H]1CO | inconclusive: 35.5 µM [inhibitor, full curve] |
| Cc1cccc2c1nc1n2[C@@H](CNC(=O)c2ccc(F)cc2)COC1 | inconclusive: 126 µM [inhibitor, single point] |
| CN1CCCN(C(=O)COc2ccc(Cl)cc2)c2ccccc21 | inconclusive: 50.1 µM [inhibitor, partial curve, poor fit] |
| COc1ccc(F)cc1-c1ccc(CN2CCCCC2C(=O)NCc2ccc(Cl)cc2)cc1 (stereo unspecified) | active: 14.1 µM |
| CC(=O)N(C1CC1)C1CCOC2(CCN(C(=O)Nc3ccccc3)CC2)C1 (stereo unspecified) | inactive |
| O=C(Nc1ccccc1)N[C@H]1CO[C@H]2[C@@H]1OC[C@H]2OC(=O)Nc1ccc(Oc2ccccc2)cc1 | inconclusive: 17.8 µM [inhibitor, full curve] |
| O=C(c1ccccc1Cl)N1CCc2nc(C3CC3)nc(-c3ccc(Cl)cc3)c2C1 | inconclusive: 56.2 µM [inhibitor, partial curve, poor fit] |
| COc1ccc(-c2cc(N3CCC(NC(=O)c4ccoc4)CC3)n[nH]2)cc1 | inconclusive: 89.1 µM [inhibitor, single point] |
| O=C(COc1ccccc1)NCC12CCC=C1N(CC1CC1)C(=O)CC2 (stereo unspecified) | inconclusive: 50.1 µM [inhibitor, partial curve, poor fit] |
| Cc1noc(-c2cn(C3CCN(C(=O)Cc4ccc(F)cc4)CC3)nn2)n1 | inactive |
| NCCCCC(=O)N1CCOc2c(O)cc(-c3csc4ccccc34)cc2C1 | active: 31.6 µM |
